{
  "sequences": {"note": "The chains behind the UniProt entries cited, without tags or fusion partners.", "UniProt Q3SXY8": "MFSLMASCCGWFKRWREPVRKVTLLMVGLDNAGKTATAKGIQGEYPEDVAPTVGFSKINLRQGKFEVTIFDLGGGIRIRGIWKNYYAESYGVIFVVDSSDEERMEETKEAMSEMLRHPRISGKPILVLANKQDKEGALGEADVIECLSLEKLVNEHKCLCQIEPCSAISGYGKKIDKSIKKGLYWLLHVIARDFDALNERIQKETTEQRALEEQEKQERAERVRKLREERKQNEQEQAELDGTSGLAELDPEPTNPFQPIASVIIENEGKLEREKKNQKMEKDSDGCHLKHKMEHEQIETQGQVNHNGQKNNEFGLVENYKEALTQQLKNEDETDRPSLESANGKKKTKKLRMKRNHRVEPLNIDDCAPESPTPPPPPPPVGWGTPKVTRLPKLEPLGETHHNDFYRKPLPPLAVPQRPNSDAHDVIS"},
  "source": "paper PMC9444247",
  "experiment_in_all_cases": "co-IP; EGFP fusion (bait) expressed in HEK293T with the co-transfected or endogenous partner; lysis in 50 mM Tris-HCl pH 7.5, 150 mM NaCl, 1% Igepal CA-630; EGFP fusions immunoprecipitated with GFP-Trap magnetic agarose beads for 2 hr or overnight at 4 °C; Western blot",
  "key": {"[1]": {"molecular_target": "T1, EGFP-INPP5E (wild type) (human) (UniProt Q9NRR6)", "T1 sequence (chain, CaaX box cysteine C641 farnesylated in cells, as the paper says of INPP5E)": "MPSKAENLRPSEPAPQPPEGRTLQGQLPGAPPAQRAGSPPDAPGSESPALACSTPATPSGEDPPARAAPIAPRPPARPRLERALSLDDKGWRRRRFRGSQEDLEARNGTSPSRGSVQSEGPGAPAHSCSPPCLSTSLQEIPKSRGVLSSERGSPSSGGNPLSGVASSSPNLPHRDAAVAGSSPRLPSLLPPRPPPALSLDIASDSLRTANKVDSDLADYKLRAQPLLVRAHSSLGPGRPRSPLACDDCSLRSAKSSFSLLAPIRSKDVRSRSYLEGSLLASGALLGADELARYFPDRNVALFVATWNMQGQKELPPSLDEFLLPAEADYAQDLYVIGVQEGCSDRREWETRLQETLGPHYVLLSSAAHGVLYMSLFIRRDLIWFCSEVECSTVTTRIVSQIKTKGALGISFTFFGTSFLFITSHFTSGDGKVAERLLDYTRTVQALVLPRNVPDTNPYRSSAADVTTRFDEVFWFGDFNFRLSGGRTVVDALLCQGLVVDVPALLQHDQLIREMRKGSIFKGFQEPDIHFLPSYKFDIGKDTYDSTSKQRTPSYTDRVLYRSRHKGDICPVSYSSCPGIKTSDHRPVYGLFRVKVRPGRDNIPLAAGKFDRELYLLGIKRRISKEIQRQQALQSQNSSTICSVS"}, "[2]": {"molecular_target": "T2, EGFP-INPP5E (Δ251–273+C641S) (human) (UniProt Q9NRR6)", "T2 sequence": "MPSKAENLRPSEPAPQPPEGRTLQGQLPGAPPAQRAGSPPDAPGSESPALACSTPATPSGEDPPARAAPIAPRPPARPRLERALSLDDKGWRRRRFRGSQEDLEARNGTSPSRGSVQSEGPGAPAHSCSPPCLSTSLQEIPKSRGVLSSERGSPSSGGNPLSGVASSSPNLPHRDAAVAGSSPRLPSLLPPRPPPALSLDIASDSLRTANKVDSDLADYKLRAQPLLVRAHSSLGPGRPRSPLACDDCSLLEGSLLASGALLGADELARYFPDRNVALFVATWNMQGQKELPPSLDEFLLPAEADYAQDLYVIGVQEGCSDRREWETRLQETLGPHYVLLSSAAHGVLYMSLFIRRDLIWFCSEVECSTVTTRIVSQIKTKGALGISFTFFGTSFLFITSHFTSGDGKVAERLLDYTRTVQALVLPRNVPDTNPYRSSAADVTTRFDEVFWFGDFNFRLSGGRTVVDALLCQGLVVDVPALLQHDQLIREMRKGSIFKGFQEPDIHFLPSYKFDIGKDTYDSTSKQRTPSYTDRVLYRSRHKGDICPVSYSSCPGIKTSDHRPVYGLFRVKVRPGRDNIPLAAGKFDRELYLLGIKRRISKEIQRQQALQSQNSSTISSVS"}, "[3]": {"molecular_target": "T3, EGFP-INPP5E (W383A) (human) (UniProt Q9NRR6)", "T3 sequence (chain, CaaX box cysteine C641 farnesylated in cells, as the paper says of INPP5E)": "T1 sequence (chain, CaaX box cysteine C641 farnesylated in cells, as the paper says of INPP5E) with W383A"}, "[4]": {"molecular_target": "T4, EGFP-INPP5E (1-283) (human) (UniProt Q9NRR6)", "T4 sequence": "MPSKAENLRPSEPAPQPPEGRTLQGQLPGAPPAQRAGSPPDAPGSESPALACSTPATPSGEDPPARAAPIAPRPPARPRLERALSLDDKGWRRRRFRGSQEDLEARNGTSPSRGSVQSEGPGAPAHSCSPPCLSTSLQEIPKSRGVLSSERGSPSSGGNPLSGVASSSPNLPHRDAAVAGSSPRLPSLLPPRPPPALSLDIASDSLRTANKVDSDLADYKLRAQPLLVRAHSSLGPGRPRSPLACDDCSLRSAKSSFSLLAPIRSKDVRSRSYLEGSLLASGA"}, "[5]": {"molecular_target": "T5, EGFP-INPP5E (FDR609AAA) (human) (UniProt Q9NRR6)", "T5 sequence (chain, CaaX box cysteine C641 farnesylated in cells, as the paper says of INPP5E)": "T1 sequence (chain, CaaX box cysteine C641 farnesylated in cells, as the paper says of INPP5E) with F609A, D610A, R611A"}, "[6]": {"molecular_target": "T6, EGFP-INPP5E (C641S) (human) (UniProt Q9NRR6)", "T6 sequence": "T1 sequence (chain, CaaX box cysteine C641 farnesylated in cells, as the paper says of INPP5E) with C641S"}, "[7]": {"molecular_target": "T7, EGFP-INPP5E (Δ251–273) (human) (UniProt Q9NRR6)", "T7 sequence (chain, CaaX box cysteine C641 farnesylated in cells, as the paper says of INPP5E)": "T2 sequence with S618C"}, "[8]": {"molecular_target": "T8, EGFP-INPP5E (251-644) (human) (UniProt Q9NRR6)", "T8 sequence (chain, CaaX box cysteine C641 farnesylated in cells, as the paper says of INPP5E)": "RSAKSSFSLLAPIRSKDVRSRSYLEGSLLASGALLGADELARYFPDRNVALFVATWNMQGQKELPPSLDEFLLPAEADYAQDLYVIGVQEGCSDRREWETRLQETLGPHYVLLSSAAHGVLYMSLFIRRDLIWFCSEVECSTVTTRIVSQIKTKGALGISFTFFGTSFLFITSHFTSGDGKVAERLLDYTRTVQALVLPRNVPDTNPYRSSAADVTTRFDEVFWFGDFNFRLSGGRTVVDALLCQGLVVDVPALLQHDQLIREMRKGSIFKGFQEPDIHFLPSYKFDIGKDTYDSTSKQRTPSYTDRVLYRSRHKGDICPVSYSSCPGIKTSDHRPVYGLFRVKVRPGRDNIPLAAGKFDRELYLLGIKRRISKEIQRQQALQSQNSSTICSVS"}},
  "note": "Where a chain is given by its changes, count along the chain named. Results are given in words; binding and its absence hold for the method and conditions named. In cells and extracts the contact can be indirect. Some binding calls cover weakened binding; strength is not graded here. Tags and fused reporters may be left off the sequences shown.",
  "data": [
    {"substance": "endogenous ARL13B (from UniProt Q3SXY8 1-428)", "values": [
      {"measurement": "binding", "setting": "[1]", "result": "binds"},
      {"measurement": "binding", "setting": "[2]", "result": "binds weakly"},
      {"measurement": "binding", "setting": "[3]", "result": "binds"},
      {"measurement": "binding", "setting": "[4]", "result": "no binding"},
      {"measurement": "binding", "setting": "[5]", "result": "binds"},
      {"measurement": "binding", "setting": "[6]", "result": "binds weakly"},
      {"measurement": "binding", "setting": "[7]", "result": "binds"},
      {"measurement": "binding", "setting": "[8]", "result": "binds"}
    ]}
  ]
}
